About 6,000 (1.7%) of roughly 360,000 compounds were called active. The shares of active, inactive and inconclusive entries below differ from those in the screen. Calls come from the whole dose curve; as a rule, active = well fitted cell-killing curve with a large enough effect; inconclusive = small, poorly fitted or top-dose-only effect, or effect the other way; inactive = flat fitted curve, though single readings scatter. Potencies of inconclusive entries are left out as doubtful fits.
assay: qHTS for induction of synthetic lethality in tumor cells producing 2HG: qHTS for the HT-1080-NT fibrosarcoma cell line; conditions: HT-1080-NT fibrosarcoma viability, CellTiter-Glo ATP luminescence, 48 h; activity, negative = less viability: at 46.1 µM (top of the series) unless noted;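 note: NT is the 2HG producing partner of a matched IDH1 knockdown line; nearly all actives have a fitted effect of over 55% in size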;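 for activity, negative = less viability: 0% = DMSO-treated cells and -100% = media-only wells without cells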
Outline: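 Toxicity toward the 2HG-producing NT line was scored as %Activity, normalised to DMSO and no-cell wells, from CellTiter-Glo luminescence after 48 hours' treatment.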
Potency is the fitted concentration of half-maximal effect; tags give direction and shape of the fitted curve.

Compound | Potency | activity, negative = less viability
C=CCC[C@H](Cc1ccc(F)cc1)C(=O)OC[C@@H](Cc1c[nH]c2ccccc12)NC(=O)[C@@H](CC=C)CC(=O)NCCO | inconclusive [cytotoxic, single point] | –
CCOC(=O)c1sc2nc3n(c(=O)c2c1C)CCC(C)CC3 (stereo unspecified) | inconclusive [rising, single point] | –
NC(=O)C1CCN(C(=O)N2c3ccccc3Sc3ccccc32)CC1 | – | inactive: -21.1%
O=C(Nc1ccccc1)c1nc[nH]c1C(=O)NCCNC(=O)c1[nH]cnc1C(=O)Nc1ccccc1 | inconclusive [cytotoxic, single point] | –
COc1cc(C#Cc2c(-c3cncn3C)n(C)c3ccc(-c4cnc(OC)nc4)cc23)cc(OC)c1 | inconclusive [cytotoxic, single point] | –
Cn1c(C(=O)O)c(CC(=O)N2CCC(Cc3ccccc3)CC2)c2ccccc21 | – | inactive: 8.88%
Cc1ccc(-c2nc(N)sc2-c2ccc(C)cc2)cc1 | inconclusive [cytotoxic, single point] | –
Cc1ccc2c(c1)c1c(n2CC(O)CN2CCCCC2C)CCCC1 (stereo unspecified) | active: 18.4 µM | –
CC(SCc1ccccc1)C(=O)N/N=C/c1ccc2c(c1)OCO2 (stereo unspecified) | – | inactive: 12%
COc1ccc(CCNC(=O)C2CC2)cc1 | – | inconclusive: -0.367% [cytotoxic]
O=C(NCc1ccccc1)c1ccc([N+](=O)[O-])cc1 | – | inactive: 7.94%
COC(=O)CC1=C(C(=O)OC)C(c2cccs2)C(C#N)=C(N)O1 (stereo unspecified) | – | inactive: 9.43%
Cc1cc(Nc2cccc([N+](=O)[O-])c2)c2cccc(C)c2n1 | inconclusive [cytotoxic, single point] | –
CC(C(=O)OCC(=O)NC1CCCC1)N1C(=O)c2ccccc2C1=O (stereo unspecified) | – | inactive: 0.0392%
CCCCCCCCN1C(=O)[C@H](CC(=O)NCCC(C)C)C[C@@]2(C(=O)OC)CCCCC=C12 | inconclusive [cytotoxic, single point] | –
FC(F)(F)c1nnc2c(Sc3ccc(Cl)cc3)nc3ccccc3n12 | – | inconclusive: -35% [cytotoxic]
CC(C)c1ccc(NC(=S)N2CCN(S(=O)(=O)c3ccccc3)CC2)cc1 | inconclusive [cytotoxic, single point] | –
O[C@@H]1CN(CC2CCCCC2)[C@@H](c2ccccc2)C[C@H]1n1cc(-c2ccc(F)cc2)nn1 | inconclusive [cytotoxic, single point] | –
COc1ccc([C@@H]2C[C@H]3CN(Cc4ccccc4OC)C(=O)[C@]34CCCN24)cc1C | – | inactive: -18.8%
O=C(Nc1cnn(Cc2ccc(F)cc2)c1)c1cc(-c2ccco2)on1 | inconclusive [cytotoxic, partial curve] | –
COc1ccc(NC(=O)c2ccc(F)c(F)c2)c2ccccc12 | – | inconclusive: 4.46% [cytotoxic]
CCOc1cc(/C=C2/SC(=O)N(CC(=O)N3CCc4ccccc4C3)C2=O)ccc1OCC(=O)O | – | inactive: 13.8%
CCOC(=O)N1CCN(C(=O)C(=O)NNC(=O)COc2ccc(Cl)cc2)CC1 | – | inactive: 13.4%
CC1=C(C(=O)OC2CCCC2)C(c2ccc(C)o2)C2=C(CC(c3cccs3)CC2=O)N1 (stereo unspecified) | inconclusive [cytotoxic, single point] | –

Compound | Potency | activity, negative = less viability
CCS(=O)(=O)N1CCC(C(=O)NCCCOC)CC1 | – | inactive: -1.45%
COc1cccc(NC(=S)N(CCCN2CCCC2)Cc2cccn2Cc2ccc(Cl)cc2)c1 | active: 20.6 µM | –
Cc1cccc(C(=O)NNC(=S)NC(=O)c2ccccc2)c1 | inconclusive [cytotoxic, single point] | –
CCOC(=O)c1sc(NC(=O)c2cccc(S(=O)(=O)N3CCc4ccccc43)c2)c(C#N)c1C | inconclusive [cytotoxic, partial curve] | –
CCNC(=O)N1CCN(CCCC(c2ccc(F)cc2)c2ccc(F)cc2)CC1 | active: 16.4 µM | –
Cc1ccc(-c2ccc(=O)n(CCC(=O)N3CCN(c4ccccc4)CC3)n2)cc1 | – | inactive: -3.39%
C/C(Cn1nnc([N+](=O)[O-])n1)=N\NC(=O)c1ccccc1Cl | inconclusive [cytotoxic, single point] | –
COc1cccc(NC(=S)N2CCN(C/C=C/c3ccccc3)CC2)c1 | active: 12.6 µM | –
O=C(CSc1nc2[nH]ncc2c(=O)n1-c1ccccc1)N1CCCc2ccccc21 | inconclusive [cytotoxic, single point] | –
CC(=O)n1cc(C(C[N+](=O)[O-])SCCN)c2ccccc21 (stereo unspecified) | inconclusive [cytotoxic, partial curve] | –
COc1cc(NC(=O)c2cc3cccc(OC)c3o2)cc(C(=O)Nc2cccc(C(F)(F)F)c2)c1 | inconclusive [cytotoxic, partial curve] | –
COCOCCn1cc(CN2CCS(=O)(=O)N(Cc3ccc(-c4ccc(Cl)c(Cl)c4)cc3)C(C)C2=O)nn1 (stereo unspecified) | active: 23.1 µM | –
CCOc1ccc2nc(NC(=O)C3CCCN(S(=O)(=O)c4cccs4)C3)sc2c1 (stereo unspecified) | – | inactive: -23.4%
Cc1cc(C)c2[nH]c(=O)c(CN(Cc3ccc4c(c3)OCO4)Cc3nnnn3C3CCCC3)cc2c1 | inconclusive [cytotoxic, single point] | –
C=CCn1c(SCC(=O)N2CCc3ccccc3C2)nc2sc(C)cc2c1=O | – | inactive: -22.8%
COc1ccc(-c2noc(CSc3nnc(CCc4ccccc4)n3-c3ccccc3)n2)cc1OC | inconclusive [cytotoxic, single point] | –
O=[N+]([O-])c1ncccc1OCc1ccccc1Br | – | inactive: 0%
O=C(CCc1ccccc1)NC(NC(=S)Nc1ccc(Cl)cc1)C(Cl)(Cl)Cl (stereo unspecified) | inconclusive [cytotoxic, single point] | –
CCC(C)(C)n1nnnc1CN1CCC(O)(c2cccc(C(F)(F)F)c2)CC1 | inconclusive [cytotoxic, single point] | –
CCn1cc(S(=O)(=O)CC(=O)Nc2ccc(OC)cc2)c2ccccc21 | – | inactive: -2.53%
Cc1ccc(S(=O)(=O)Nc2ccc(S(=O)(=O)Nc3nccs3)cc2)cc1C | – | inactive: -0.0887%
CCOC(=O)c1sc(Nc2nc(C)cc(C)n2)nc1C | – | inactive: -4.67%
NCCCC[C@H](N[C@@H](CCc1ccccc1)C(=O)O)C(=O)N1CCC[C@H]1C(=O)O | – | inconclusive: -24% [cytotoxic]
C/C(=N\NC(=O)c1cc2ccccc2cc1O)c1cc2ccccc2o1 | inconclusive [cytotoxic, partial curve] | –

Compound | Potency | activity, negative = less viability
COc1ccc(N(C(=O)Cn2cnc3ccccc32)C(C(=O)NC2CCCCC2)c2ccccc2)cc1 (stereo unspecified) | inconclusive [cytotoxic, single point] | –
COC(=O)C1C(=O)C(C(=O)/C=C/c2ccccc2)C(=O)CC1(C)C (stereo unspecified) | inconclusive [cytotoxic, single point] | –
CN(C(=O)c1ccccc1OCc1ccc(Cl)cc1)c1ccccc1 | inconclusive [cytotoxic, single point] | –
CC(Cc1cccs1)NC(=O)Nc1ccc(Cl)c(Cl)c1 (stereo unspecified) | inconclusive [cytotoxic, single point] | –
COc1cccc(C(=O)NC2CCCc3c2cnn3-c2ccc(C)c(C)c2)c1OC (stereo unspecified) | – | inactive: 3.66%
O=S(=O)(Nc1ccccn1)c1cnc(Cl)c(Br)c1 | – | inactive: 12.5%
COc1cc(NC(=O)c2cc(-c3ccc4c(c3)OCO4)on2)cc(OC)c1OC | active: 8.2 µM | –
O=C(Cn1cc(C(F)(F)F)ccc1=O)N/N=C/c1ccccc1O | inconclusive [cytotoxic, partial curve] | –
CN(C)S(=O)(=O)n1cc(/C=C(\NC(=O)c2ccccc2F)C(=O)N2CCCCC2)c2ccccc21 | – | inactive: 8.24%
O=C(c1ccco1)N1CCN(CCCCN2C(=O)c3ccccc3C2=O)CC1 | – | inconclusive: -37.4% [cytotoxic]
Cc1ccc(N(Cc2ccc(C(=O)NCCSc3ccccn3)cc2)S(C)(=O)=O)cc1C | – | inactive: 0.921%
COc1cccc(N/C(=N/C(=S)Nc2ccc(C)cc2C)Nc2nc(C)cc(C)n2)c1 | inconclusive [cytotoxic, single point] | –
COC(=O)CSc1nc(C)cc(C(F)(F)F)c1C#N | – | inactive: 0.429%
COc1ccc(-n2sc3ccc(F)cc3c2=O)cc1 | inconclusive [cytotoxic, single point] | –
COc1cc(C(=O)N/N=C(\C)Cc2ccccc2)cc(OC)c1OC | active: 1.16 µM | –
COC(=O)C1=C(C(=O)OC)[C@@H]2N(C)c3ccc(OC)cc3[C@@]23C[C@@H](C(=O)OC)N(C(=O)c2cc(C)oc2C)C3=N1 | – | inactive: -10.7%
Fc1ccc(CNCCC(Cc2ccccc2)c2ccco2)cc1 (stereo unspecified) | inconclusive [cytotoxic, partial curve, poor fit] | –
CSc1ccc(CN2CCC(CO)(Cc3ccc(Cl)cc3)CC2)cc1 | inconclusive [cytotoxic, partial curve] | –
Cc1nn(-c2cccc(C(F)(F)F)c2)c(=O)c2noc(C)c12 | inconclusive [rising, partial curve, poor fit] | –
Cc1ccc2nc(SCC(=O)c3c[nH]c4ccccc34)[nH]c2c1 | inconclusive [cytotoxic, single point] | –
O=C(Nc1nnc(-c2cccs2)o1)c1cccc(Oc2ccccc2)c1 | inconclusive [cytotoxic, single point] | –
C=CCNC(=S)NNC(=O)COc1cccc(Cl)c1 | inconclusive [cytotoxic, single point] | –
Cc1ccc(C(=O)NC(=S)NNC(=O)c2ccccc2O)cc1 | – | inconclusive: -24.1% [cytotoxic]
